The IC50 is the concentration at which inhibition is half-maximal.

By IC50 is meant the dose at which the fit gives 50% viability; a fit beyond the top or the lowest dose is shown as a bound at that dose. AUC is the area under the same curve over the 256-fold range up to the top dose, as a fraction; values near 1 show little effect. Any top dose called inferred was calculated from the reported fits. A value given as a limit tells only on which side of the number the result lay.

AUC and IC50 data for 60 cell lines are collected here from the supplement of paper PMC4967469.

Compound in the assay: O=C1NC(=O)/C(=C\c2ccc3nccnc3c2)S1 [AS605240]
The assay can be described thus: Viability of human cancer cell lines after 72 h of drug (GDSC screen). Conditions: top dose inferred. As to the method: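 Human cancer cell lines in 384-well plates, medium with 10% serum, drug for 72 h over a 256-fold dose range (nine 2-fold or five 4-fold steps up to the top dose). Adherent lines were fixed and stained with the nucleic acid dye Syto60, suspension lines read with resazurin; signal relative to control wells, capped at 0 and 100%. One two-parameter sigmoid per drug and line, fitted in a mixed model over all curves with the slope shared within a line.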
As to “NCI-H520 (lung squamous cell carcinoma, adherent, top dose 20 µM)”, the AUC is 0.888 and the IC50 was greater than 20 µM.

“NCI-H522 (lung adenocarcinoma, adherent, top dose 20 µM)”: the AUC amounted to 0.733 and the IC50 turned out to be 6.61 µM.

On to “NCI-H524 (small cell lung carcinoma, suspension, top dose 20 µM)”, for which the AUC worked out at 0.97 and the IC50 was greater than 20 µM.

Consider “NCI-H526 (small cell lung carcinoma, suspension, top dose 20 µM)”, for which the AUC came out at 0.966 and the IC50 is greater than 20 µM.

As for “NCI-H596 (lung adenocarcinoma, adherent, top dose 20 µM)”, the AUC is 0.646 and the IC50 stood at 3.6 µM.

“NCI-H630 (large intestine, adherent, top dose 20 µM)”: the AUC came out at 0.952 and the IC50 is greater than 20 µM.

Take “NCI-H647 (non-small cell lung carcinoma, adherent, top dose 20 µM)”: the AUC amounted to 0.848 and the IC50 was 15.9 µM.

As to “NCI-H650 (lung adenocarcinoma, adherent, top dose 20 µM)”, the AUC worked out at 0.751 and the IC50 is 7.18 µM.

In the case of “NCI-H661 (large cell lung carcinoma, adherent, top dose 20 µM)”, the AUC turned out to be 0.86 and the IC50 is greater than 20 µM.

In the case of “NCI-H716 (large intestine, suspension, top dose 20 µM)”, the AUC was 0.973 and the half-inhibitory concentration (IC50) is greater than 20 µM.

For the cell line “NCI-H720 (lung carcinoid, suspension, top dose 20 µM)”, the AUC came to 0.971 and the IC50 is greater than 20 µM.

Take “NCI-H727 (lung carcinoid, adherent, top dose 20 µM)”: the AUC turned out to be 0.369 and the IC50 came out at 0.427 µM.

Turning to “NCI-H747 (large intestine, adherent, top dose 20 µM)”, the AUC was determined as 0.555 and the concentration for half-maximal inhibition (IC50) stood at 1.83 µM.

Regarding “NCI-H748 (small cell lung carcinoma, suspension, top dose 20 µM)”, the AUC came to 0.952 and the IC50 was greater than 20 µM.

In the case of “NCI-H810 (large cell lung carcinoma, adherent, top dose 20 µM)”, the AUC came to 0.885 and the IC50 was greater than 20 µM.

As for “NCI-H838 (lung adenocarcinoma, adherent, top dose 20 µM)”, the AUC is 0.969 and the IC50 was greater than 20 µM.

Regarding “NCI-H841 (small cell lung carcinoma, adherent, top dose 20 µM)”, the AUC was 0.952 and the IC50 is greater than 20 µM.

Take “NCI-H847 (small cell lung carcinoma, adherent, top dose 20 µM)”: the AUC was found to be 0.896 and the IC50 stood at 16.3 µM.

Take “NCI-H1048 (small cell lung carcinoma, adherent, top dose 20 µM)”: the AUC was 0.818 and the 50% inhibitory concentration (IC50) stood at 9.88 µM.

As to “NCI-H1092 (small cell lung carcinoma, suspension, top dose 20 µM)”, the AUC was determined as 0.951 and the IC50 was greater than 20 µM.

In the case of “NCI-H1155 (large cell lung carcinoma, suspension, top dose 20 µM)”, the AUC is 0.897 and the IC50 came to 17 µM.

As for “NCI-H1299 (large cell lung carcinoma, adherent, top dose 20 µM)”, the AUC amounted to 0.779 and the IC50 is 10.1 µM.

Consider “NCI-H1304 (small cell lung carcinoma, suspension, top dose 20 µM)”, for which the AUC worked out at 0.456 and the IC50 is 0.941 µM.

As for “NCI-H1355 (lung adenocarcinoma, adherent, top dose 20 µM)”, the AUC is 0.903 and the IC50 is greater than 20 µM.

In the case of “NCI-H1395 (lung adenocarcinoma, adherent, top dose 20 µM)”, the AUC was 0.969 and the IC50 was greater than 20 µM.

Turning to “NCI-H1417 (small cell lung carcinoma, suspension, top dose 20 µM)”, the AUC was determined as 0.942 and the IC50 was greater than 20 µM.

As for “NCI-H1435 (lung adenocarcinoma, semi-adherent, top dose 20 µM)”, the AUC turned out to be 0.962 and the IC50 was greater than 20 µM.

With “NCI-H1436 (small cell lung carcinoma, suspension, top dose 20 µM)”, the AUC was found to be 0.893 and the IC50 was greater than 20 µM.

For the cell line “NCI-H1437 (lung adenocarcinoma, adherent, top dose 20 µM)”, the AUC stood at 0.589 and the IC50 came to 2.21 µM.

“NCI-H1563 (lung adenocarcinoma, adherent, top dose 20 µM)”: the AUC was determined as 0.788 and the IC50 amounted to 10.7 µM.

With “NCI-H1568 (lung adenocarcinoma, adherent, top dose 20 µM)”, the AUC was 0.698 and the IC50 amounted to 5.22 µM.

Turning to “NCI-H1573 (lung adenocarcinoma, adherent, top dose 20 µM)”, the AUC came out at 0.86 and the IC50 worked out at 16 µM.

“NCI-H1581 (large cell lung carcinoma, semi-adherent, top dose 20 µM)”: the AUC came out at 0.888 and the IC50 stood at 19.4 µM.

With “NCI-H1623 (lung adenocarcinoma, adherent, top dose 20 µM)”, the AUC is 0.928 and the IC50 was greater than 20 µM.

Take “NCI-H1648 (lung adenocarcinoma, adherent, top dose 20 µM)”: the AUC came out at 0.763 and the IC50 was 7.63 µM.

For “NCI-H1651 (lung adenocarcinoma, adherent, top dose 20 µM)”, the AUC came to 0.978 and the IC50 is greater than 20 µM.

Take “NCI-H1666 (lung adenocarcinoma, semi-adherent, top dose 20 µM)”: the AUC turned out to be 0.935 and the half-maximal inhibitory concentration (IC50) is greater than 20 µM.

Turning to “NCI-H1688 (small cell lung carcinoma, adherent, top dose 20 µM)”, the AUC is 0.928 and the IC50 is greater than 20 µM.

“NCI-H1693 (lung adenocarcinoma, adherent, top dose 20 µM)”: the AUC came out at 0.922 and the IC50 is greater than 20 µM.

“NCI-H1694 (small cell lung carcinoma, suspension, top dose 20 µM)”: the AUC was 0.875 and the IC50 was 19.5 µM.

As for “NCI-H1703 (lung adenocarcinoma, adherent, top dose 20 µM)”, the AUC was determined as 0.885 and the IC50 is greater than 20 µM.

“NCI-H1734 (lung adenocarcinoma, adherent, top dose 20 µM)”: the AUC is 0.943 and the IC50 was greater than 20 µM.

For “NCI-H1755 (lung adenocarcinoma, adherent, top dose 20 µM)”, the AUC is 0.496 and the IC50 stood at 1.22 µM.

As for “NCI-H1770 (non-small cell lung carcinoma, suspension, top dose 20 µM)”, the AUC turned out to be 0.78 and the IC50 was 7.17 µM.

Take “NCI-H1781 (lung adenocarcinoma, adherent, top dose 20 µM)”: the AUC was determined as 0.638 and the IC50 came to 3.01 µM.

As to “NCI-H1792 (lung adenocarcinoma, adherent, top dose 20 µM)”, the AUC turned out to be 0.242 and the 50% inhibitory concentration (IC50) was found to be 0.248 µM.

As to “NCI-H1793 (lung adenocarcinoma, adherent, top dose 20 µM)”, the AUC was determined as 0.941 and the IC50 is greater than 20 µM.

On to “NCI-H1836 (small cell lung carcinoma, suspension, top dose 20 µM)”, for which the AUC worked out at 0.931 and the IC50 is greater than 20 µM.

As to “NCI-H1838 (lung adenocarcinoma, adherent, top dose 20 µM)”, the AUC amounted to 0.924 and the IC50 is greater than 20 µM.

As to “NCI-H1869 (lung squamous cell carcinoma, adherent, top dose 20 µM)”, the AUC was found to be 0.789 and the half-maximal inhibitory concentration (IC50) is 10.1 µM.

For “NCI-H1876 (small cell lung carcinoma, adherent, top dose 20 µM)”, the AUC came to 0.874 and the IC50 came out at 19.8 µM.

As to “NCI-H1915 (large cell lung carcinoma, adherent, top dose 20 µM)”, the AUC is 0.791 and the IC50 stood at 9.19 µM.

As for “NCI-H1944 (lung adenocarcinoma, adherent, top dose 20 µM)”, the AUC turned out to be 0.626 and the IC50 came to 2.84 µM.

In the case of “NCI-H1975 (lung adenocarcinoma, adherent, top dose 20 µM)”, the AUC was 0.928 and the IC50 is greater than 20 µM.

For “NCI-H1993 (lung adenocarcinoma, adherent, top dose 20 µM)”, the AUC stood at 0.774 and the IC50 is 10.4 µM.

Take “NCI-H2009 (lung adenocarcinoma, adherent, top dose 20 µM)”: the AUC worked out at 0.97 and the IC50 was greater than 20 µM.

As for “NCI-H2023 (lung adenocarcinoma, adherent, top dose 20 µM)”, the AUC was determined as 0.953 and the IC50 is greater than 20 µM.

As to “NCI-H2029 (small cell lung carcinoma, adherent, top dose 20 µM)”, the AUC is 0.95 and the IC50 was greater than 20 µM.

Consider “NCI-H2030 (lung adenocarcinoma, adherent, top dose 20 µM)”, for which the AUC came to 0.819 and the IC50 was determined as 13.4 µM.

For “NCI-H2052 (mesothelioma, adherent, top dose 20 µM)”, the AUC was determined as 0.981 and the IC50 was greater than 20 µM.
